Experimental data reported in the supplement of paper PMC3334620.
Whole data set: some 33,000 sequences, median “E-score (-0.5 to 0.5)” near -0.032, cut for the highest 2% near 0.36. The list shows a part of the results.

target: T1, Sko1 (UniProt Q02100); experiment: PBM E-score (8-mer binding enrichment) (E-score (-0.5 to 0.5)); higher = stronger / more preferred TF binding; most listed sequences are background and not binding sites; conditions: protein concentration: 200 nM; construct: GST-full length
T1 sequence: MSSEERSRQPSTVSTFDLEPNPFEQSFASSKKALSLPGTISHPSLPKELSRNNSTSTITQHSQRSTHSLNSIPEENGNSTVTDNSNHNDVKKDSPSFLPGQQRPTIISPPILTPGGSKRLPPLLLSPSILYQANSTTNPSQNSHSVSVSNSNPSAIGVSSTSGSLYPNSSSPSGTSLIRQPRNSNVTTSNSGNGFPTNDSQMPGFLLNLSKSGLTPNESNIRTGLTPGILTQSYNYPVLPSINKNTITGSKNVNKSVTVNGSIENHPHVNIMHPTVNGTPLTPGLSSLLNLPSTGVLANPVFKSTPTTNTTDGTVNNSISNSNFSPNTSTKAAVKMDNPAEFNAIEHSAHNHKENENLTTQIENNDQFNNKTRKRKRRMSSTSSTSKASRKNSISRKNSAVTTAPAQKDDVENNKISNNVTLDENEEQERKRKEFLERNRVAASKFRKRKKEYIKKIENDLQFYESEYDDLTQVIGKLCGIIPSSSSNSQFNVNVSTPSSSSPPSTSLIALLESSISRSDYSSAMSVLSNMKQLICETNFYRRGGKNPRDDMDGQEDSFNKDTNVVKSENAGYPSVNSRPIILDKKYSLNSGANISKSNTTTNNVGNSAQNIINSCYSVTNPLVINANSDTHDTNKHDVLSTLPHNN
Procedure: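 Universal 'all 10-mer' protein binding microarrays (Agilent AMADID 015681) probed with GST-tagged S. cerevisiae TFs (full-length or DBD) made by in vitro transcription/translation (PURExpress), about 100-200 nM. Bound TF was detected with fluorescent anti-GST. Each ungapped 8-mer (which stands for itself and its reverse complement) is scored by the PBM enrichment score (E-score), a modified Wilcoxon-Mann-Whitney statistic from -0.5 to +0.5, computed with the Universal PBM Analysis Suite. Scale: above 0.35 generally sequence-specific binding.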

In order of falling “PBM E-score” value:
1. ACGTCACT  0.489
2. ATGGCGTC  0.392
3. GACGTCGA  0.364
4. TAATATTA  0.362
5. CGTCAAGA  0.325
6. TGAGGTAA  0.324
7. TAACGTTA  0.302
8. CGTAAACC  0.292
9. CGAAATTA  0.275
10. ACACGCGT  0.275
11. GCGTCAAA  0.274
12. ACGAACGT  0.245
13. AAACGTGC  0.231
14. ATCGATTG  0.213
15. ATGATCAT  0.201
16. GATACACC  0.192
17. CGAATTAA  0.191
18. ATATTAAG  0.189
19. GTACTACA  0.188
20. CACTTGAC  0.186
21. TAGAATGA  0.172
22. ATGTGACA  0.169
23. AGCCACAT  0.169
24. CATAGACG  0.167
25. CGTAGGTA  0.165
26. TACAAACA  0.164
27. CGCGACAA  0.158
28. CCACATAA  0.154
29. CGCAGAAG  0.151
30. CTGAACAC  0.133
31. CACGCGCG  0.127
32. GCTTAAGC  0.124
33. CAAGTGCG  0.119
34. AAGTATAT  0.118
35. CATGTTAA  0.117
36. ACTTTTAA  0.115
37. ACTGTAAT  0.104
38. AAACTCAC  0.0991
39. AAATGACC  0.0951
40. CCATGTCG  0.0932
41. ACTTTTTG  0.0874
42. ATCGCAAT  0.0775
43. CAATAATC  0.0749
44. GAGGAATA  0.0676
45. AACAGTGT  0.0669
46. ACATGCGG  0.0654
47. GCTATGCA  0.0613
48. ACTTGCGA  0.0546
49. GCGTAGGA  0.0517
50. AATCATCG  0.0491
51. ATTCTCAC  0.0465
52. CGACGATC  0.0457
53. ATAGATTG  0.0453
54. GTACAGGA  0.0369
55. CCCTGAAA  0.0337
56. ATTGATCC  0.0318
57. CACGACCA  0.029
58. GAACATGA  0.025
59. ATCCTTTC  0.0248
60. AGCTACTA  0.0216
61. AACCCTGA  0.0138
62. ATCCCGAG  0.0113
63. ATCTACTC  0.00745
64. CGCGAAGA  0.00689
65. TCGCGCGA  0.00443
66. ACAAGAAG  0.0038
67. TAGACCTA  -0.00634
68. AAAACTTT  -0.00891
69. CTCGGATA  -0.0118
70. AGATATGG  -0.016
71. GTGGCAGA  -0.0257
72. CCCATTTA  -0.0301
73. GCGCGAGA  -0.0329
74. ACGCCGTG  -0.0333
75. ACCAGTGG  -0.0428
76. ATTTTAGA  -0.0457
77. ATCCGAGA  -0.0475
78. CGAAACGC  -0.0498
79. GCAACGCC  -0.0627
80. ACAGACAG  -0.0629
81. CACAGCCA  -0.0637
82. ACTGCGGA  -0.0678
83. ATACCGGA  -0.0679
84. CCGCTTAC  -0.0682
85. GGCGGGGA  -0.0687
86. AACGCCAG  -0.0689
87. CGGCGCAA  -0.0689
88. AGCATAGA  -0.0737
89. ATCTGCAA  -0.0812
90. CGGAAACA  -0.0815
91. ATTAGGCC  -0.0836
92. CGGTTGAA  -0.0841
93. CTGTGCTA  -0.0875
94. CTATCGCA  -0.0882
95. ACTGTCGA  -0.0921
96. CGAATACC  -0.0967
97. AGGAACGA  -0.0982
98. CACAAGCC  -0.0983
99. GAAGTCTC  -0.0994
100. ATGCCCGA  -0.109
101. ACAAGCCC  -0.112
102. AAAGCCAA  -0.113
103. GAATGCCA  -0.114
104. CCGATCTA  -0.121
105. CTTATGCC  -0.123
106. ATAAGAGG  -0.124
107. ACGACTGC  -0.125
108. AGAGACGC  -0.126
109. CCGGACCA  -0.127
110. AGTAGCGG  -0.127
111. ACAGTGGT  -0.128
112. AGATCCAA  -0.133
113. AGCACGCC  -0.134
114. GATTTGGC  -0.137
115. AGGTATAG  -0.141
116. GCAGACAA  -0.141
117. AGTTGCTC  -0.144
118. AGGAGGTA  -0.144
119. GGCCTAAA  -0.155
120. AGCTTCCG  -0.156
121. GACTTATC  -0.156
122. CACTGGTC  -0.159
123. CTTCTTTC  -0.165
124. AACGGCCA  -0.166
125. TTGCCAAA  -0.168
126. CTAGAGCA  -0.171
127. ACCGCGCT  -0.174
128. ACTCAGCT  -0.174
129. CGCCCAGC  -0.176
130. GATCGGGC  -0.176
131. AGAACTAG  -0.177
132. GCCGCGAC  -0.177
133. AGGCCGTC  -0.178
134. ATGGGGTC  -0.181
135. GCAAGGGC  -0.184
136. ACTCTCGC  -0.184
137. CCCAATCA  -0.185
138. GAGCCACA  -0.185
139. ATCGGAGG  -0.185
140. GGGCACGA  -0.186
141. CAGACTTC  -0.193
142. AGTTTCCC  -0.197
143. AGCTGGGA  -0.198
144. CTCACTTC  -0.201
145. CCTGTAAA  -0.207
146. CGCCAAAG  -0.208
147. GGGTCGAA  -0.21
148. CCACGAGC  -0.212
149. GAGTACCC  -0.214
150. GCCTTGTA  -0.216
151. AGTGGAGG  -0.217
152. ATGTGCCG  -0.218
153. CGGTTACC  -0.221
154. CATGCCTA  -0.228
155. AAAGGAGG  -0.23
156. GGGCGACA  -0.235
157. CCGACTGC  -0.235
158. CCCTCGCC  -0.241
159. CGAGGGCC  -0.264
160. CTACCTGC  -0.266
161. AGATCTCC  -0.267
162. CCGGCACC  -0.269
163. CCTCTCGC  -0.271
164. ACCTGTAG  -0.289
165. AAGAGCCG  -0.304
166. AGGCCGGA  -0.308
167. CGGTCCAC  -0.32
168. AGCCATCC  -0.322
169. CATCCCGG  -0.325
170. AGGCCGGG  -0.396
171. ACCAGTCC  -0.42
172. GCCCCGGC  -0.424
